Assay results taken from the supplement of paper PMC10338343.
± gives the standard deviation. The list shows a part of the results, in another mix than the full data.

Test system: MIWI (PIWIL1) piRISC loaded with L1MC piRNA (30 nt)
Assay: pre-steady-state target cleavage rate (min^-1); MIWI and MILI are mouse PIWI proteins and EfPiwi is from a freshwater sponge; tags in brackets are library labels; higher = faster piRNA-guided slicing of the target
Settings: guide: L1MC piRNA 5'p-UAACUAAAUACUAUGCAAGCUGUAGGUCCU
Procedure, shortened: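 Active affinity-purified piRISC (1 nM) loaded with one synthetic guide was mixed with a transcribed, DNA-blocked target RNA library (0.1 nM), with or without 500 nM GTSF1 partner protein, in HEPES–potassium acetate buffer at 33 °C for 0–8 or 0–960 min. Uncleaved targets were sequenced, normalised to depth and to weakly complementary targets, and pooled across three trials, with k3 capped at 0.0001 min^-1. The pre-steady-state cleavage rate was determined with a burst-and-steady-state fit.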

[1] = auxiliary factor: 500 nM mouse GTSF1
[2] = auxiliary factor: none (no GTSF1)

Row | Sequence | pre-steady-state target cleavage rate [1] | pre-steady-state target cleavage rate [2]
1 | UCGACCUACAGCUUGCAUAGUAUAUUGUUA | 0.499 ± 0.028 | 0.0241 ± 0.0063
2 | UCCUCCUACACCUUGCAUAGUAUUUAGUAA | 0.653 ± 0.09 | 0.0189 ± 0.0041
3 | UCCUGGAACUAGCUUGCAUAGUAUUUAGUUA | 0.472 ± 0.044 | 0.0415 ± 0.0091
4 | UCCUGGAUGUGCUUGCAUAGUAUUUUGUUA | 0.213 ± 0.022 | 0.0261 ± 0.0063
5 | UCCUGGAACAGCAUGCAUAGUUUUUAGUUA | 0.24 ± 0.024 | 0.0229 ± 0.0057
6 | UCCUCCUACAGCUUGCCUAGUAUUUAGUUA | 0.966 ± 0.066 | 0.0224 ± 0.004
7 | UCGACCUACAGCAUGCUUAGUAUUUAGUUA | 0.915 ± 0.057 | 0.0113 ± 0.0023
8 | UGCACCUACAGCUUGCAUAGUAUUAAGUUA | 0.743 ± 0.069 | 0.0331 ± 0.008
9 | UCGACCUACACCUUGCAUAGUAUAUAGUUA | 0.791 ± 0.064 | 0.0219 ± 0.0055
10 | UCCUGGUACAGCUUGCAUAGUAUUUUGAUA | 0.166 ± 0.031 | 0.00994 ± 0.0034
11 | UCCUGGAUGAGCAUGCAUAGUAUAUAGUUA | 0.157 ± 0.021 | 0.00567 ± 0.0024
12 | UCCUGGUACAGGUUGCUUAGUAUUUAGUUA | 0.987 ± 0.066 | 0.0135 ± 0.0031
13 | UCCUGCUACAGCAUGCAUUGUAUUUAGUUA | 0.719 ± 0.06 | 0.00906 ± 0.0033
14 | UCCUGGUACAGCUUGCAUAGUACUUUAGUUA | 0.281 ± 0.036 | 0.00815 ± 0.0026
15 | UCGACCUACAGCUAGCAUAGUAUUUAGAUA | 0.513 ± 0.033 | 0.00963 ± 0.0037
16 | UCCUCCUACAGGUUGCAUAGUAUUAAGUUA | 0.462 ± 0.037 | 0.00954 ± 0.0016
17 | UCCUGGAUCAGCUUGCAUAGUAUUUGGUUA | 0.861 ± 0.06 | 0.037 ± 0.0087
18 | UGGACCUACAGCUUGCAUAGUAAUUAGAUA | 0.224 ± 0.035 | 0.00678 ± 0.0022
19 | UCCUGGAUCUGCUUGCAUAGUUUUUAGUUA | 0.103 ± 0.015 | 0.0152 ± 0.0032
20 | UGGACCUACAGCUUGGAUAGUAUUUACUUA | 0.492 ± 0.053 | 0.0311 ± 0.0051
21 | UCCUGGUAGAGCUUGCAUAGUAUUAAGUUA | 0.465 ± 0.072 | 0.0149 ± 0.0049
22 | UCCUGCUACAGCUUGCAUUGUAUAUAGUUA | 0.41 ± 0.034 | 0.0118 ± 0.0039
23 | UCCUGGUACAGCUUGGAUAGUUUUUAGUUA | 0.209 ± 0.048 | 0.0179 ± 0.0054
24 | UCCUGGUACACCUUGCAUUGUAUUUAGUUA | 0.207 ± 0.052 | 0.00808 ± 0.0025
25 | UCCUGGAACAGCUAGCAUUGUAUUUAGUUA | 0.489 ± 0.022 | 0.0104 ± 0.0037
26 | UCCUCCUACAGCAUGCAUAGUAUUUUGUUA | 0.485 ± 0.045 | 0.0105 ± 0.002
27 | UCCUCCUAGAGCUUGGAUAGUAUUUAGUUA | 0.982 ± 0.06 | 0.037 ± 0.0057
28 | UCGACCUACAGGUUGCAUAGUUUUUAGUUA | 0.258 ± 0.013 | 0.0179 ± 0.0032

Row | Sequence | pre-steady-state target cleavage rate [1] | pre-steady-state target cleavage rate [2]
29 | UCCUGGUACAGCUUGGAUAGUAUUUUGUUA | 0.359 ± 0.066 | 0.0236 ± 0.0073
30 | UCGACCUACAGCUUGCAUAGUAUUUAGUAA | 1.15 ± 0.061 | 0.0683 ± 0.014
31 | UCCUGGAACGCUUGCAUAGUAUUUAGUUA | 0.919 ± 0.034 | 0.0392 ± 0.0097
32 | AGGACCUACUGCUUGCAAAGUAUUUAGUUA | 1.11 ± 0.057 | 0.0455 ± 0.0095
33 | UCCACCUACAGCUUGCAUAGUAUUAUCUUA | 0.3 ± 0.046 | 0.00377 ± 0.0028
34 | UCCUGGAUCAGCUUGCUUAGUAUUAAGUUA | 0.178 ± 0.018 | 0.00894 ± 0.0036
35 | UGGACCUACUGCUUCCAUAGUAUUUAGUUA | 0.0331 ± 0.0053 | 0.00429 ± 0.0015
36 | AGGACCUACAGGCUUGCAUAGUAUUUAGUUA | 1.16 ± 0.07 | 0.0646 ± 0.01
37 | AGGACCUACAGUUGCAUAGUAUUUAGUUA | 0.988 ± 0.07 | 0.0102 ± 0.0034
38 | AGGACCUACAGCUUGCAUAGUAAAUAGUUA | 0.673 ± 0.05 | 0.0172 ± 0.0063
39 | UCGACCUACAGCUUGGUUAGUAUUUAGUAA | 0.72 ± 0.061 | 0.00525 ± 0.002
40 | UGGACCUACAGGUUGCAUAGUAUUAAGUUA | 0.494 ± 0.045 | 0.0148 ± 0.0033
41 | UCCUGGUACACCUUGCAUAGUAUUUAGAUA | 0.116 ± 0.042 | 0.00446 ± 0.0026
42 | UCCUGCAACAGGUUGCAUAGUAUUUAGUUA | 1.11 ± 0.085 | 0.0208 ± 0.0052
43 | UCCUCCUACAGCUUGCAUAGUAUAAAGUAA | 0.207 ± 0.033 | 0.00274 ± 0.002
44 | UCGACCUACAGCUAGCAAAGUAUUUAGUUA | 1.1 ± 0.062 | 0.00621 ± 0.002
45 | UCGACCUACAGCUUGCAUAGUAUUUACGUUA | 0.862 ± 0.043 | 0.0475 ± 0.0078
46 | AGGACCUACAGCUUGAAUAGUAUUUAGUUA | 1.44 ± 0.059 | 0.0532 ± 0.01
47 | UCCUGCUACAGCUUGCAAAGUUUUUAGUUA | 0.283 ± 0.03 | 0.0158 ± 0.0037
48 | UCCUGGAACAGCUUGCAUAGUAUUUCAGUUA | 0.231 ± 0.032 | 0.00987 ± 0.0022
49 | UCCUGGAUCACCUUGCAUAGUUUUUAGUUA | 0.0425 ± 0.0089 | 0.00716 ± 0.0025
50 | UCCUGGUACAGCUUGCAUAGUAUUUUGUUA | 0.448 ± 0.059 | 0.0356 ± 0.0063
51 | UCCUGGUACAGCUUUCAUAGUAUUUAGUUA | 0.379 ± 0.06 | 0.0149 ± 0.0031
52 | UCCUGGAUGUGCUUGCAUAGUUUUUACUUA | 0.0121 ± 0.0054 | 0.00627 ± 0.0027
53 | AGGACCUACAGCUUGCAUAGUACUUAGUUA | 0.929 ± 0.07 | 0.0524 ± 0.0094
54 | UCCUGGUACAGCUAGCAUAGUUUUUAGUUA | 0.191 ± 0.031 | 0.0196 ± 0.0048
55 | UGGACGUACAGCUUGCAUAGUAUUUAGAAA | 0.41 ± 0.048 | 0.0181 ± 0.0049
